The subject of data set [1] is NCI-H322M. To be noted: NCI-60 database, sulforhodamine B, read-out: Cytotoxic IC50; cited from earlier work.
In data set [2] the test system is NCI-H522. To be noted: NCI-H522, NCI-60 database, sulforhodamine B; read-out: Cytotoxic IC50; cited from earlier work.
The subject of data set [3] is NCI-H322M. Kind of data set: In vitro cytotoxicity (PrestoBlue). In kind it is cell-based. To be noted: Homo sapiens, 72 h, read-out: Cytotoxic IC50. The source says:
Experiments were repeated at least 3 times.

Read-outs that look alike come from different tables or passages of the source.

Take `COc1cccc2c1C(=O)c1c(O)c3c(c(O)c1C2=O)C[C@@](O)(C(=O)CO)C[C@@H]3O[C@H]1C[C@H](N)[C@H](O)[C@H](C)O1` [DOX, doxorubicin]: the IC50 (usually the concentration at which inhibition is half-maximal) in data set [1] was 453 nM; in data set [2] it was 54.7 nM.

As for `COc1cccc2c1C(=O)c1c(O)c3c(c(O)c1C2=O)C[C@@](O)(C(C)=O)C[C@@H]3O[C@H]1C[C@H](N)[C@H](O)[C@H](C)O1` [Dau, daunorubicin], the IC50 is 288 nM in data set [1] and 36.1 nM in data set [2].

For the compound `COc1cccc2c1C(=O)c1c(O)c3c(c(O)c1C2=O)C[C@@](O)(C(C)=O)C[C@@H]3O[C@H]1C[C@H]2[C@H](OC3CCCN32)[C@H](C)O1` (some centres unmarked) [PyDau, 2-deamino-2-pyrrolino-daunorubicin], the IC50 in data set [3] stood at 7.85 nM.

The values are drawn from patent US20250032525A1 (priority 2021, published 2025).
